Results: patent US20240190986A1 (ZHEJIANG NANOMAB TECHNOLOGY CENTER, published 2024)

Assays:
[1] = target: T1, MSLN·His protein (human, UniProt Q13421 296-580, limits assumed); assay: SPR (Biacore), antibody captured on protein A, MSLN·His as analyte
T1 construct: Bought protein; also called human MSLN·His antigen; not shown: His tag
Protocol: (1) Detection of affinity at protein level: the binding kinetics and affinity of heavy chain antibody to human MSLN·His antigen were determined using surface plasmon resonance (SPR). The purified antibody was flowed through the sensor chips pre-immobilized with protein A, and the antibody was captured by protein A. Then five different concentrations of MSLN·His protein were used as the mobile phase, and the binding time and dissociation time were 30 min and 60 min, respectively. Biacore Evaluation Software 2.0 (GE) was used to analyze the binding rate (kon, or ka), dissociation rate (koff, or kd) and equilibrium constant (KD). The rabbit antibody YP218, which binds to segment III of mesothelin, was selected as a positive control (Zhang et al., Sci Rep 2015, 21; 5:9928).

[2] = target: T2, MSLN on SKOV3 and Aspc-1 tumor cells (UniProt Q13421 296-598); assay: flow cytometry on SKOV3 tumor cells, anti-human IgG PE secondary, fitted curve
T2 construct: whole, on cells; Endogenous mesothelin of tumor cell lines; also called SKOV3 tumor cell line; AsPC-1 tumor cell line

[3] = target: T2, MSLN on SKOV3 and Aspc-1 tumor cells; assay: flow cytometry on Aspc-1 tumor cells, anti-human IgG PE secondary, fitted curve
[4] = target: T3, segment III of MSLN expressed on HEK293T cells (UniProt Q13421 487-598, limits assumed); assay: flow cytometry on HEK293T cells expressing MSLN segment III, anti-human IgG PE secondary, fitted curve
T3 construct: domain: segment III of MSLN; also called HEK293T MSLN-III cells; MSLN segment III protein overexpressing cell line

T2 sequence (Q13421 other isoform, or with tags, fused parts or gaps limits assumed): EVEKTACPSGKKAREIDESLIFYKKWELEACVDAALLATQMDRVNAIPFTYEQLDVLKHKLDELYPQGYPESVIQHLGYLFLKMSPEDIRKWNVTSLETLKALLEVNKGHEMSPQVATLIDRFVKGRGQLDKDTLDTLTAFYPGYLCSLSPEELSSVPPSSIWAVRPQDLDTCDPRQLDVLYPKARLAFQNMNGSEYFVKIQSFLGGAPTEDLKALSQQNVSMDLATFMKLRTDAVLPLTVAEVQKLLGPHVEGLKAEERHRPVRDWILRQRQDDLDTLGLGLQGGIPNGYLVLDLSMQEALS

B1: M118-IgG4 (antibody)
heavy: EVQLVESGGGLVQAGGSLTLSCAASEHTFTIDAMGYYRQIPGRRNERQLVAAAGRTGTTYYNDAVKDRFTIYRDTSKETIILQMNNLRPEDTTMYYCAVERYSDQSRFFGPGTQVTVSS[human IgG4 Fc with S228P (EU numbers) left out]
notes: also called M118 heavy chain antibody
B1 was tested, and the Kd [1] was 0.74 nM, the koff [1] was 0.000505 s⁻¹ and the kon [1] was 679000 M⁻¹ s⁻¹. The EC50 [2] was 1.33 nM, the EC50 [3] was 5.16 nM and the EC50 [4] was 5.21 nM.
